Test results reported in PubChem BioAssay AID588855 (National Center for Advancing Translational Sciences (NCATS), 2011).
The campaign covered roughly 410,000 compounds. About 5,000 (1.2%) were called active. Inconclusive means that the source gave no clear call. Such entries were picked first, then a sample of the others. The call rests on the fitted dose curve; in most records, active means well fitted inhibition curve with a large enough effect; inconclusive means small, poorly fitted or top-dose-only effect; inactive means no such curve, though single readings can be large or run the other way. Potencies beside an inconclusive call are fits to weak or partial responses and may not hold up.

Assay: qHTS for Inhibitors of TGF-b; further: nearly all actives have a fitted effect of over 65% in size
Conditions: HepG2 CAGA-GFP TGF-b/SMAD3 reporter, GFP fluorescence, 18 h, TGF-beta stimulated, 500 pg/mL final; series mostly up to 46.1 µM; activity, negative = inhibition: at the top concentration
In short: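 Inhibition of TGF-beta-driven CAGA-GFP reporter expression in HEPG2 cells is measured by cellular GFP fluorescence after 18 h stimulation with 500 pg/mL recombinant TGF-beta in 1% FBS medium at 37 degrees C.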
On the % scale 0 is the no-effect control and ±100 the full control effect; potency means the concentration at half of the fitted maximal effect; tags describe the fitted curve by direction and shape.

With `CCOC(=O)c1cc(-c2ccc(N3CCOCC3)cc2)nn1-c1ccccc1C(=O)O` as the molecule, how does the “activity, negative = inhibition” value read?
The value was inactive: 3.78%.

Which Potency does the source give for `COC(=O)[C@H]1C[C@@H]1[C@H](NC(=O)c1cccnc1)c1ccccc1` here?
The Potency was inconclusive: 25.1 µM [inhibitor, single point].

Which “activity, negative = inhibition” value does the source give for `CC1(C)C(=O)N(CCN2CCC(C(=O)c3ccc(F)cc3)CC2)c2ccccc21` here?
The value was inactive: -30.9%.

With `CCOc1ccc(CCNC(=O)c2ccc(-c3nc(COc4ccc(C)cc4)c(C)o3)cc2)cc1` as the molecule, how does the Potency read?
Its Potency is inconclusive: 2.82 µM [inhibitor, partial curve, poor fit].

Which Potency does the source give for `CCN(Cc1ccccc1)S(=O)(=O)c1ccc(C(=O)N(CCCN(C)C)c2nc3ccc(F)cc3s2)cc1` here?
The Potency was inconclusive: 35.5 µM [inhibitor, single point].

For `CCCCn1c(SCC(=O)N2CCC(C)CC2)nc2ccsc2c1=O`, which “activity, negative = inhibition” value is on record?
Its value is inactive: -25.4%.

With `CCCC(=O)Nc1sc(C)c(-c2ccc(OC)cc2)c1C#N` as the molecule, how does the “activity, negative = inhibition” value read?
The value was inactive: 5.28%.

For `Cc1ccc(C(=O)NNC(=O)c2cc3cc4ccccc4nc3s2)cc1`, which Potency is on record?
The Potency was inconclusive: 35.5 µM [inhibitor, single point].

With `CC1(C)CC(=O)CC2(C1)NCC(c1ccccc1Cl)c1c2[nH]c2ccccc12` (stereo not given) as the molecule, how does the Potency read?
The Potency was inconclusive: 35.5 µM [inhibitor, single point].

For `O=C(/C=C/Sc1ccc(C(F)(F)F)cn1)c1ccccc1`, which Potency is on record?
Its Potency is inconclusive: 2.51 µM [inhibitor, full curve].

For `CCOC(=O)CCCC(=O)N1CCN(/[N+]([O-])=N/Oc2ccc([N+](=O)[O-])cc2[N+](=O)[O-])CC1`, which Potency is on record?
Its Potency is inconclusive: 35.5 µM [inhibitor, single point].

With `COc1ccc(C2CC3(CC(C)(C)NC(SC)=N3)Oc3cc(O)cc(C)c32)cc1` (stereo not given) as the molecule, how does the Potency read?
Its Potency is inconclusive: 17.8 µM [inhibitor, single point].

With `CCSCCNC(=O)c1cncc(Br)c1` as the molecule, how does the Potency read?
The Potency was inconclusive: 2.82 µM [inhibitor, partial curve].

For `CC(=O)c1ccc(NC(=O)C2(c3ccccc3)CC2(Cl)Cl)cc1` (stereo not given), which “activity, negative = inhibition” value is on record?
The value was inactive: 4.33%.

With `CC(C)(Cc1ccccc1)/[N+]([O-])=C\c1ccccc1` as the molecule, how does the “activity, negative = inhibition” value read?
The value was inactive: -0.247%.

For `Cc1ccc(C(=O)CSc2cc(C)nc(SCC(=O)c3ccccc3)n2)cc1`, which Potency is on record?
Its Potency is inconclusive: 3.16 µM [inhibitor, full curve].

Which Potency does the source give for `O=C(c1ccc(S(=O)(=O)Cc2ccccc2F)c([N+](=O)[O-])c1)N1CCCC1` here?
The Potency was inconclusive: 2.51 µM [inhibitor, partial curve, poor fit].

With `CCOC(=O)N1CCN(C(=S)NC2CCCCC2)CC1` as the molecule, how does the Potency read?
The Potency was inconclusive: 35.5 µM [inhibitor, single point].

With `Cc1cc(OCC(=O)N(Cc2ccc(N(C)C)cc2)C2CCS(=O)(=O)C2)cc(C)c1Cl` (stereo not given) as the molecule, how does the Potency read?
The Potency was inconclusive: 15.8 µM [inhibitor, single point].

With `CCOC(=O)C1(C)CCCN1C(=O)c1snnc1C` (stereo not given) as the molecule, how does the Potency read?
The Potency was inconclusive: 35.5 µM [inhibitor, single point].

For `COc1ccc(COc2cccc(C=O)c2)cc1`, which “activity, negative = inhibition” value is on record?
Its value is inactive: 11.6%.

For `COc1ccccc1C(=O)c1cn(CC(=O)Nc2ccccc2F)c2nc(C)ccc2c1=O`, which “activity, negative = inhibition” value is on record?
Its value is inactive: 0.416%.

Which Potency does the source give for `Cc1ccc(C)c(N2CCN(C(=O)c3cc(S(=O)(=O)N4CCC(C)CC4)cn3C)CC2)c1` here?
Its Potency is inconclusive: 3.98 µM [inhibitor, full curve].

For `COc1ccc(C2CC(c3ccc(C(F)(F)F)cc3)=NN2c2ccc(S(N)(=O)=O)cc2)cc1` (stereo not given), which Potency is on record?
Its Potency is inconclusive: 20 µM [inhibitor, single point].

Which “activity, negative = inhibition” value does the source give for `COc1cc(C(=O)Nc2nnc(-c3sccc3C)s2)cc(OC)c1OC` here?
The value was inactive: -10.6%.

For `COC(=O)c1c(-c2ccncc2)csc1NC(=O)c1ccoc1C`, which “activity, negative = inhibition” value is on record?
Its value is inactive: -1.45%.

Which Potency does the source give for `Cc1cc(C)cc(C(=O)N(C)C2CCCN(Cc3ccccc3F)C2)c1` (stereo not given) here?
The Potency was inconclusive: 7.08 µM [inhibitor, partial curve, poor fit].

Which “activity, negative = inhibition” value does the source give for `Cc1ccc2oc(C(=O)Nc3cccc(-c4nc5ccccc5s4)c3)c(C)c2c1` here?
The value was inactive: -0.414%.

With `COc1ccccc1Cn1cc(C(=O)c2ccc(F)cc2)c(=O)c2cc3c(cc21)OCO3` as the molecule, how does the “activity, negative = inhibition” value read?
The value was inactive: 13.7%.

Which Potency does the source give for `Cc1ccc(NC(=S)/N=C(\N)Nc2nc(C)c3ccccc3n2)cc1C` here?
Its Potency is inconclusive: 10 µM [inhibitor, partial curve, poor fit].

Which Potency does the source give for `CN(C(=O)COC(=O)c1ccccc1OCc1ccc(Cl)cc1)c1c(N)n(Cc2ccccc2)c(=O)[nH]c1=O` here?
Its Potency is inconclusive: 0.891 µM [inhibitor, full curve, poor fit].

With `Cc1c(C(=O)N2CCCC2)oc2c1-c1nn(CC(=O)NC(C)c3ccccc3)cc1CC2` (stereo not given) as the molecule, how does the Potency read?
The Potency was inconclusive: 12.6 µM [inhibitor, partial curve].

For `COc1ccc(NC(=O)C2Cc3c(-c4ccccc4Oc4ccccc4)ccnc3O2)cn1` (stereo not given), which Potency is on record?
Its Potency is inconclusive: 35.5 µM [inhibitor, single point].

Which Potency does the source give for `CCC(C(=O)Nc1cc(OC)ccc1OC)n1c(C)c2cnn(-c3ccccc3)c(=O)c2c1C` (stereo not given) here?
The Potency was inconclusive: 25.1 µM [inhibitor, partial curve, poor fit].

Which Potency does the source give for `COc1cc(CCCN2C(=S)NC[C@H]2Cc2ccc(O)cc2)cc(OC)c1OC` here?
The Potency was inconclusive: 35.5 µM [inhibitor, partial curve, poor fit].

Which Potency does the source give for `O=C(CN1CCN(C2CCCCC2)CC1)Nc1ccccc1N1CCCCC1` here?
The Potency was inconclusive: 28.2 µM [inhibitor, single point].

Which Potency does the source give for `COCC(C)n1c(C)cc(C(=O)CSc2nnc(Nc3ccccc3F)s2)c1C` (stereo not given) here?
Its Potency is inconclusive: 35.5 µM [inhibitor, single point].

For `CCOC(=O)c1c(N2C(=O)C=CC2=O)sc(C)c1C`, which Potency is on record?
Its Potency is active: 15.8 µM.

Which Potency does the source give for `O=C1C(C2=NC(c3ccccn3)C3C(=O)N(c4ccc(Cl)cc4Cl)C(=O)C23)=C(O)c2ccccc21` (stereo not given) here?
Its Potency is inconclusive: 2.82 µM [inhibitor, full curve].

For `CC(C)(C)c1cc(C(=O)N/N=C/c2ccc(O)cc2)n(-c2ccccc2)n1`, which “activity, negative = inhibition” value is on record?
Its value is inactive: 1.62%.

Which Potency does the source give for `CC(C)(C)OC(=O)NCc1ccc(CNC(=O)c2[nH]cnc2C(=O)NC2CCN(C(=O)OC(C)(C)C)CC2)cc1` here?
The Potency was inconclusive: 20 µM [inhibitor, single point].

For `N#CNC(=Nc1cccc(F)c1)SCc1ccccc1F`, which Potency is on record?
The Potency was inconclusive: 17.8 µM [inhibitor, single point].

For `O=C(NC(=S)Nc1ccc(N2CCCC2)cc1)c1ccc(F)cc1`, which Potency is on record?
The Potency was inconclusive: 7.94 µM [inhibitor, partial curve, poor fit].

With `Cc1nnc(N/N=C/c2ccc(-c3ccccc3F)o2)n1N` as the molecule, how does the Potency read?
Its Potency is inconclusive: 22.4 µM [inhibitor, single point].

For `Cc1csc2ncnc(N3CCN(S(=O)(=O)c4cccc(C(F)(F)F)c4)CC3)c12`, which Potency is on record?
Its Potency is inconclusive: 22.4 µM [inhibitor, single point].

For `Cc1ccc(F)cc1NC(=O)N1CCN(c2ccnc3cc(Cl)ccc23)CC1`, which Potency is on record?
The Potency was inconclusive: 10 µM [inhibitor, partial curve].

For `COc1ccccc1N(C)S(=O)(=O)c1ccc(C(=O)Nc2nc(C)cs2)cc1`, which Potency is on record?
The Potency was inconclusive: 22.4 µM [inhibitor, single point].

With `CCCS(=O)(=O)NC(=O)C1(C)CCN(C(=O)c2ccc(C(F)(F)F)cc2)C1` (stereo not given) as the molecule, how does the “activity, negative = inhibition” value read?
Its value is inactive: -3.16%.

For `CC(=O)c1cccc(NC(=O)N2CCC(NC(=O)C3CCCCC3)CC2)c1`, which “activity, negative = inhibition” value is on record?
Its value is inactive: -15.9%.

With `COc1ccc2c(CNCCc3cccs3)c(C(=O)O)n(Cc3ccccc3C)c2c1` as the molecule, how does the Potency read?
The Potency was inconclusive: 0.126 µM [inhibitor, full curve, poor fit].

For `Cc1cccc(N2CCN(C(=O)C3CCN(S(=O)(=O)c4c(C)noc4C)CC3)CC2)c1C`, which Potency is on record?
Its Potency is inconclusive: 10 µM [inhibitor, partial curve, poor fit].

Which Potency does the source give for `COc1ccc(-c2noc(N3CCC(C(=O)N(C)c4cc(Cl)ccc4OC)CC3)n2)cc1` here?
The Potency was inconclusive: 31.6 µM [inhibitor, single point].

For `CN(CC(=O)Nc1ccccc1Cl)C(=O)c1ccc(-c2cccc(C(F)(F)F)c2)o1`, which Potency is on record?
Its Potency is inconclusive: 22.4 µM [inhibitor, single point].

Which “activity, negative = inhibition” value does the source give for `Clc1cccc(CNc2ccn3nc(-c4cccc(OCc5ccccc5)c4)cc3n2)c1` here?
Its value is inactive: -19.3%.

With `Cc1ccccc1N(CC(=O)N/N=C/c1ccccc1Cl)C(=O)c1ccccc1` as the molecule, how does the “activity, negative = inhibition” value read?
Its value is inactive: 10.1%.

With `COc1ccc(CCNC(=O)CCc2cn(Cc3ccc(C)cc3)c3ccccc23)c(OC)c1OC` as the molecule, how does the Potency read?
Its Potency is inconclusive: 5.62 µM [inhibitor, single point].

Which Potency does the source give for `CC(C)c1ccc(-n2cccc2/C=C2/C(=N)N3C=CSC3=NC2=O)cc1` here?
Its Potency is inconclusive: 11.2 µM [inhibitor, single point].

For `CCOC(=O)c1cccc(NC(=O)C2CCCN(S(=O)(=O)c3c(C)nn(C)c3C)C2)c1` (stereo not given), which “activity, negative = inhibition” value is on record?
Its value is inactive: -14%.

For `CCOC(=O)C1CCCN(Cc2ccc(OCc3ccccc3)cc2)C1` (stereo not given), which “activity, negative = inhibition” value is on record?
Its value is inactive: -6.05%.

For `O=C(Nc1nnc(-c2ccco2)s1)C1CCCCC1`, which “activity, negative = inhibition” value is on record?
Its value is inactive: 14.2%.

For `N#C/C(=C\c1ccc[nH]1)S(=O)(=O)c1ccccc1`, which Potency is on record?
The Potency was inconclusive: 8.91 µM [inhibitor, partial curve, poor fit].

Which Potency does the source give for `O=C(c1ccc2c(c1)OCO2)N(Cc1cccs1)C1(C(=O)NC2CCCCC2)CCCCC1` here?
Its Potency is inconclusive: 35.5 µM [inhibitor, single point].

Which Potency does the source give for `CC(C)CC(COCc1ccc([N+](=O)[O-])cc1)N1CCN(C(=O)c2ccc(C(F)(F)F)cc2)CCC1=O` (stereo not given) here?
The Potency was inconclusive: 0.708 µM [inhibitor, full curve, poor fit].

Which Potency does the source give for `CCO[C@H]1OC(C(=O)Nc2ccccc2)=C[C@@H](c2coc3ccccc3c2=O)[C@@H]1CCCO` here?
Its Potency is inconclusive: 3.16 µM [inhibitor, single point].

Which “activity, negative = inhibition” value does the source give for `Cc1cc(CN2CCN(c3ccc(F)cc3)CC2)cs1` here?
The value was inactive: -25.2%.
